Reference: PubChem BioAssay AID1745853 (National Center for Advancing Translational Sciences (NCATS), 2022)
The list shows a part of the results. Shown are side measurements of this screen, not its main read-out; they come without a call.

Experiments:
Assay in all cases: Primary Screen for Target Class Profiling of Small Molecule Inhibitors of Methyltransferases
[1] = biological target: Glycine N-methyltransferase (Homo sapiens) (UniProt Q14749); conditions: purified enzyme, MTase-Glo SAH luminescence; measured here: GNMT inhibition; at 40 µM; stronger effect = lower value
In short: (§1)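 Each enzyme was reacted with SAM and its substrate, with compounds tested once at 40 uM; SAH formed was read by MTase-Glo luminescence.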

[2] = biological target: Guanidinoacetate N-methyltransferase (Homo sapiens) (UniProt Q14353); conditions: purified enzyme, MTase-Glo SAH luminescence; measured here: GAMT inhibition; at 40 µM; stronger effect = lower value
In short: as §1

[3] = biological target: Histamine N-methyltransferase (Homo sapiens) (UniProt P50135); conditions: purified enzyme, MTase-Glo SAH luminescence; measured here: HNMT inhibition; at 40 µM; stronger effect = lower value
In short: as §1

[4] = biological target: Nicotinamide N-methyltransferase (Homo sapiens) (UniProt P40261); conditions: purified enzyme, MTase-Glo SAH luminescence; measured here: NNMT inhibition; at 40 µM; stronger effect = lower value
In short: as §1

[5] = biological target: Phenylethanolamine N-methyltransferase (Homo sapiens) (UniProt P11086); conditions: purified enzyme, MTase-Glo SAH luminescence; measured here: PNMT inhibition; at 40 µM; stronger effect = lower value
In short: as §1
% is set by controls: 0 for no effect and ±100 for the full control effect.

SMILES	activity change, negative = inhibition [1]	activity change, negative = inhibition [2]	activity change, negative = inhibition [3]	activity change, negative = inhibition [4]	activity change, negative = inhibition [5]
O=C(Nc1cccc(C(F)(F)F)c1)Nc1cc(S(=O)(=O)NC2CC2)ccc1-c1ccsc1	-0.832%	-5.29%	-0.404%	-26.4%	-15.2%
CCOC(=O)c1cc2n(n1)CC(C)(C(=O)NCc1ccccc1)N(c1ccc(OCC)cc1)C2=O (stereo not drawn)	0.786%	1.89%	3.17%	-1.77%	-0.508%
COc1ccc(CN(C)C(=O)C2(C)CCOCC2)cc1	-5.4%	-9.13%	-2.89%	-18.8%	4.42%
CCC(C)NC(=O)c1ccc2c(=O)n(C)c3nnc(SCc4ccc(F)cc4)n3c2c1 (stereo not drawn)	7.47%	4.67%	5.03%	2.57%	3.44%
CCCCN1C(=O)NC(c2ccc(OC)cc2)C2=C1COC2=O (stereo not drawn)	-6.23%	-3.07%	0.724%	-10.2%	-1.67%
Cc1cc(C)n(Cc2ccc(C(=O)N3CCCC(CO)CCNC(=O)CC3)o2)n1 (stereo not drawn)	-0.935%	-2.63%	-3.46%	0.884%	-1.79%
CC(C)OCCCn1c(=O)c2ccccc2n2c(CCC(=O)N3CCN(c4ccccc4)CC3)nnc12	-6.65%	-4.5%	-0.762%	-11.5%	-0.187%
CCN1CCN(CCCN2CC3(CCN(Cc4ncc[nH]4)CC3)OC2=O)CC1	2.31%	1.22%	2.51%	-1.28%	3.92%
NC(=O)c1ccc(F)c2c1C[C@@H](N(C1CCC1)C1CCC1)CO2	1.24%	7.07%	13.4%	-8.7%	5.53%
CC(C(=O)O)c1ccc2c(c1)[nH]c1ccc(Cl)cc12 (stereo not drawn)	-42.2%	-2.57%	9.27%	-14.5%	2.23%
CC(C)CCn1c(=O)c2ccccc2n2c(SCC(=O)NC(C)C)nnc12	5%	1.13%	4.56%	3.91%	8.01%
COC(=O)c1ncn2c1C(=O)N(Cc1ccccc1F)C(C)(C(=O)NC1CCCC1)C2 (stereo not drawn)	-3.38%	-2.13%	-9.45%	-5.25%	-5.97%
COc1ccc(CNC(=O)C(C)n2ccc3cc(S(=O)(=O)N4CCCC4)ccc32)cc1 (stereo not drawn)	0.19%	4.96%	-1.56%	-5.57%	-0.256%
CCC(C)NC(=O)c1ccc2c(=O)n(CCC(C)C)c3nn(CC(N)=O)c(=O)n3c2c1 (stereo not drawn)	3.19%	0%	1.12%	4.21%	3.97%
O=S(=O)(c1ccccc1)c1nnn2c1nc(NCc1ccc(Cl)cc1)c1ccccc12	4.06%	0.691%	9.3%	4.96%	0.958%
CC(=O)N1CCN(C(=O)c2ccc3nnc(CC4CC4)n3c2)CC1	-7.34%	-13.5%	-4.84%	-8.65%	1.87%
CS(=O)(=O)N(C1CC1)C1CCOC2(CCN(C(=O)NCc3ccccc3)CC2)C1 (stereo not drawn)	-2.97%	-6.78%	-2.19%	-13.3%	-7.49%
Cc1cccc(C)c1NC(=O)C(C)N (stereo not drawn)	2.18%	10.1%	10.4%	-4.65%	1.58%
Cc1ccc(C)c(N2C(=O)c3cc4oc(C)cc4n3CC2(C)C(=O)NC2CCCCCC2)c1 (stereo not drawn)	-1.04%	0%	-4.49%	2.05%	-1.01%
COc1ccc(CNC(=O)C[C@@H]2O[C@H](Cn3cc(CN(C)Cc4ccccc4)nn3)[C@@H](O)[C@H]2O)cc1	-3.84%	-5.65%	-2.88%	-5.38%	-3.75%
CC(C)=CCC/C(C)=C/COCC1OC(n2ccc(=O)[nH]c2=O)C(O)C1O (stereo not drawn)	0.145%	2.27%	9.1%	-9.47%	-5.58%

SMILES	activity change, negative = inhibition [1]	activity change, negative = inhibition [2]	activity change, negative = inhibition [3]	activity change, negative = inhibition [4]	activity change, negative = inhibition [5]
O=C(O)C1CCCNC1 (stereo not drawn)	2.22%	5.54%	4.72%	-6.26%	-0.369%
O=C(Cc1ccc(F)cc1)N1CCC2(COc3ccncc3[S+](=O)([O-])N2)C1 (stereo not drawn)	-4.01%	-4.78%	-3.04%	-5.53%	-1.92%
Cc1ccc(CNC(=O)CSc2nnc3n(CC(C)C)c(=O)c4ccc(C(=O)NC(C)C)cc4n23)cc1	-4.12%	-11.1%	4.58%	-4.91%	-5.63%
CCC(C(=O)NC(=O)NC(C)=O)c1ccccc1 (stereo not drawn)	-1.48%	1.73%	5.96%	-9.05%	0.756%
CN(C)c1nc(NC2CCC(NC(=O)c3ccc(F)c(F)c3)CC2)nc2ccccc12 (stereo not drawn)	2.7%	14.3%	-62.9%	-35.9%	-13.1%
CCCN1C(=O)c2c(C(=O)NCc3ccc(F)cc3)ncn2CC1(C)C(=O)NCc1ccc(F)cc1 (stereo not drawn)	2.71%	0%	5.16%	0.544%	5.83%
CCOc1ccc(C(=O)Cn2nc3n(CCC(C)C)c(=O)c4ccc(C(=O)NC(C)C)cc4n3c2=O)cc1	2.07%	0%	0.723%	-1.71%	1.96%
CCCN1C(=O)c2cc(C(=O)NCc3ccc(OCC)cc3)nn2CC1(C)C(=O)NC1CCCC1 (stereo not drawn)	-5.08%	0.6%	-3.35%	-8.89%	-7.97%
COc1ccc(Cn2c(=O)c3ccccc3n3c(-c4ccc(C)cc4)nnc23)cc1	-2.3%	0%	8.13%	2.22%	1.34%
Cc1ccc(Cn2c(=O)c3ccccc3n3c(CCC(=O)N4CC=C(c5ccccc5)CC4)nnc23)cc1	-4.71%	0%	-1.27%	-8.39%	-2.9%
CC(C)Cn1c(=O)c2cc(F)ccc2n2c(SCC(=O)Nc3ccccc3Cl)nnc12	-6.12%	0%	5.46%	-5.77%	1.26%
CCCCNC(=O)C1CCc2sc(C(=O)N3CCCCC3)cc2C1 (stereo not drawn)	-3.57%	1.05%	-0.156%	-6.6%	-1.45%
Cc1ccc(CNC(=O)N2CCCCCNC(=O)[C@@H]3CCC[C@@H]32)cc1	-7.02%	-9.08%	-5.78%	-6.75%	-8.18%
CCOC(=O)CNC(=O)N1Cc2c(sc3c2CCCC3)-n2cccc2C1c1ccc(CC)cc1 (stereo not drawn)	-3.9%	0%	-1.8%	-5.7%	2.71%
Cn1c2c(c3ccccc31)C(C(=O)NCc1ccccc1)N(C1CCCCCC1)C(=O)CS2 (stereo not drawn)	5.73%	1.57%	3.85%	2.2%	8.75%
Cc1noc(C)c1[S+](=O)([O-])N1CCc2nc(-c3ccccc3)nc(-c3ccc(Cl)cc3)c2C1	-5.73%	-8.14%	-3.28%	-13.8%	-7.18%
CC1=CC(=O)C(C(C)C)=C/C1=N/OC(=O)c1ccccc1C		1.19%		-17.4%	-7.5%
C=Cc1ccc(CSc2nnc3n(CCCOC(C)C)c(=O)c4cc(Cl)ccc4n23)cc1	-3.69%	0%	1.04%	-6.37%	2.84%
CC(C)n1c(=O)c2ccc(C(=O)NC3CCCCC3)cc2n2c(=O)n(Cc3ccccc3)nc12	0.601%	2.69%	5.4%	-0.04%	-2.26%
C=CCNC(=O)c1cnn2c1CN(C(=O)c1cccnc1)CC2	-2.91%	-0.404%	-1.05%	0.633%	-22.6%
CC1(C(=O)NC2CCCC2)Cn2cnc(C(=O)Nc3cccc(Cl)c3)c2C(=O)N1C1CC1 (stereo not drawn)	-2.46%	0%	9.59%	-10.3%	2.78%

SMILES	activity change, negative = inhibition [1]	activity change, negative = inhibition [2]	activity change, negative = inhibition [3]	activity change, negative = inhibition [4]	activity change, negative = inhibition [5]
CCCn1c(=O)c2ccc(C(=O)NCC(C)C)cc2n2c(=O)n(CC(=O)Nc3cccc(C)c3)nc12	0.899%	0%	0.993%	2.06%	1.68%
CCC(C)OC(=O)C(C)Oc1ccc2c(=O)c(-c3ccc(OC)c(OC)c3)c(C(F)(F)F)oc2c1 (stereo not drawn)	-1.85%	1.9%	1.94%	-0.593%	-5.04%
CN(C)C(=O)C(CCN1CCC(O)(c2ccc(Cl)cc2)CC1)(c1ccccc1)c1ccccc1	-4.58%	6.5%	-21.3%	-12.5%	7.86%
CCc1cc2c(cc3n2CC(C)(C(=O)NC2CCCCC2)N(Cc2cccc(OC)c2)C3=O)s1 (stereo not drawn)	1.18%	3.69%	6.54%	2.83%	-1.82%
Cc1noc(-c2cccs2)c1C(=O)NCc1ccccc1Cl	-12%	-18.2%	-3.43%	-17.8%	-9.41%
Cc1cccc(-c2nocc2CCC(=O)NCc2ccc(F)cc2F)c1	-4.9%	-5.38%	-1.21%	-15.1%	-11.5%
Cn1cc(C(=O)N2C[C@@H](C(=O)O)[C@H](c3cccc(F)c3)C2)c(=O)[nH]c1=O	-2.12%	-2.59%	-2.69%	-2.07%	-1.49%
Cc1ccc(Cl)cc1Nc1nn2c(=O)c3ccc(C(=O)NC4CCC(C)CC4)cc3nc2s1 (stereo not drawn)	2.81%	0%	2.56%	5.84%	2%
CC(=O)N1CCN2C(=O)N(Cc3ccc(F)cc3)C[C@H]2C1	-14.1%	-8.9%	-1.81%	-15.3%	-8.54%
Cc1ccccc1C(=O)Nc1ccc(C(=O)N2CCCC(O)c3cc(Cl)ccc32)c(C)c1 (stereo not drawn)	-10.2%	-8.88%	4.88%	-19.2%	-8.91%
CC(C)CCC1(O)C(=O)C(C)(C)C(O[C@@H]2O[C@H](CO)[C@@H](O)[C@H](O)[C@H]2O)C(C)(C)C1O (stereo partly drawn)	0.617%	-2.11%	2.9%	-13.9%	-8.84%
O=C(O)/C=C/c1cc2c(cc1O[C@@H]1O[C@H](CO)[C@@H](O)[C@H](O)[C@H]1O)OCO2	2.14%	0.309%	11.9%	-10.9%	-7.5%
CC1C=CC2CCCCC2C1CCC1CC(O)CC(=O)O1 (stereo not drawn)	-2%	4.19%	6.74%	-23.6%	-7.72%
CC1(C(=O)NC2CCCCCCC2)Cn2c(cc3occc32)C(=O)N1Cc1ccco1 (stereo not drawn)	-0.258%	0%	7.66%	-4.46%	4.8%
O=C(NC1CCCc2ccccc21)C1CN(C2CCCCC2)C(=O)N1 (stereo not drawn)	-7.25%	-9.38%	-4.61%	-15.5%	2.25%
C#CC(=O)N(c1ccc(OC)cc1OC)C(C(=O)NCC(=O)OCC)c1cccs1 (stereo not drawn)	-7.09%	-8.26%	10.8%	-12.1%	2.24%
C[C@@H]1CN(C(=O)CCSCc2ccccc2)CC[C@@]1(O)C1CCOCC1	-2.26%	-1.93%	0.151%	-1.16%	2.83%
NCC1OC(O[C@H]2[C@H](O)[C@@H](OC3C(O)C(N)CC(N)C3OC3OC(CO)C(O)C(O)C3N)O[C@@H]2CO)C(N)C(O)C1O (stereo partly drawn)	7.83%	12.3%	11.7%	-4.36%	1.82%
Cc1cn2nc(C(=O)NCC(C)c3ccccc3)cc2c(N2CCSCC2)n1 (stereo not drawn)	-4.75%	1.57%	-10.7%	-9.65%	-0.411%
